Laboratory results published in the RNAGym collection of RNA variant scans (doi:10.1101/gad.245936.114).
Variants at the floor of the assay are shown more often than the library holds them.

B1: tRNA (parent)
chain: CUCUCGGUAGCCAAGUUGGUUUAAGGCGCAAGACUUUAAUUUAUCACUACGAAAUCUUGAGAUCGGGCGUUCGACUCGCCCCCGGGAGAUUUUUUCCUCGAGCAA

Variants of: B1
Assay: nonsense suppression (GFP-seq) (ratio to wild type); higher = more function; SUP4oc tRNA, yeast GFP reporter sort-seq
Summary of the method: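 To measure nonsense suppression, tRNA variants from a library carrying ~3% random mutations were integrated into the yeast genome alongside RFP and a GFP ochre reporter under galactose control. Growth took place in raffinose/galactose medium supplemented with 80 mg/L adenine, followed by sorting into GFP/RFP bins and Illumina sequencing of each bin (phred ≥30). For each variant with ≥100 reads and ≥30 cells, the bin median GFP/RFP values were weighted by its estimated cell share per bin and referenced to the unmutated parent tRNA.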

Nonsense suppression, 0.153:
CUCUCGGUGGCCAAGUUGGUUUAAGGCGCAAGACUUUAAUUUAUCACUACGAAAUCUUGAGAUCGGGUGUUCGACUCGCCCCCGGGAGAUUUUUUCCUCGAGCAA

Nonsense suppression, 0.0268:
CUCUCGGUGGCCAAGUUGGUUUAAGGCGCAAGACUUUAAUUUAUCACUACGAAAUCUUGAGAUCGGGCGUUAGACUCGCCCCCGGGAGAUUUUUUCCUCGAGCAA

Nonsense suppression, 0.2:
CUCUCGGUGGCCAAGUUGGUUUAAGGCGUAAGACUUUAAUUUAUCACUACGAAAUCUUGAGAUCGGGCGUUCGACUCGCCCCCGGGAGAUUUUUUCCUCGAGCAA

Nonsense suppression, 0.0476:
CUCUCGGUGUCCAAGUUGGUUUAAGGCGCAAGACUUUAAUUUAUCACUACGAAAUCUUGAGAUCGGGCGUUCGACUCGCCCCCGGGAGAUUUUUUCCUCGAGCAA

Nonsense suppression, 0.028:
CUCUCGGUGGCCAAGUUGGUUUAAGGCGCAAGACUUUAAUUUAUCACUACGAAAUCUUGAGAUCGGGCGUUCGACUCGCCUCCGGGAGAUUUUUUCCUCGAGCAA

Nonsense suppression, 0.0699:
CUCUCGGUGGCCAAGUUGGUUUAAGGCGCAAGACUUUAAUUUAUCACUACGAAAUCUUGAGAUCGGGCGUUCGACUCGCCCCCAGGAGAUUUUUUCCUCGAGCAA

Nonsense suppression, ≤ 0.026:
CUCUCGGUGGCCAAGUUCGUUUAAGGCGCAAGAGUUUAAUUUAUCACUACGAAAUUUUGAGAUCGGGCGUUCGACUCGCCCCCGGGAGAUUUUUUCCUCGAGCAA
CUCUCGGUGGCCAAGUUGGUUUAAGGCGCAAGACUUUAAUUUAUCACUACGAAAUCUUGAGAUCGGGCGUUCGACUCACCCCCAGGAGAUUUUUUCCUCGAGCAA
CUCUCGGUGGCCAAGUUGGUUUAAGGCUCAAGCGUUUAAUUUAUCACUACGAAAUCUUGAGAUCGGGCGUUCGACUCGCCCCCGGGAGAUUUUUUCCUCGAGCAA
CUCUCGGUGGCCAAGUUGUUUUAAGGCGCAAGACUUUAAUUUAUCACUACGAAAUCUUGAGACCGGGCGUUCGACUCGCCCCCGGGAGAUUUUUUCCUCGAGCAA
CUCUCGGUGGCCAAGUUGGUUUAAGGCGCAAGACUUUAAUUUAUCACUACGAAAUCUUGAGAUCGGGCGUUCGACUCGCCCCCGGCAGAUUUUUUCCUCGAGCAA
CUCUCGGUGGCCAAGUUGGUUUAAGGCGCAAGACUUUAAUUUAUCACUACGAAAUCUUGAGAUCGGGCGUUCGAUCCCCUCCCGGGAAAUUUUUUCCUCGAGCAA
CUCUCGGUGUCCAAGUUGGUUUAAGGCGCAAGACUUUAAUUUAUCACUACGAAAUCUUGAGAUCAGGCGUUCGACUCGCCCCCAGGAGAUUUUUUCCUCGAGCAA
CUCUCGGUGGCCAACUUGGUUUAAGGCACAAGACUUUAAUUUAUCACUACGAAAUCUUGAGAUCGGGCGUUCGACUCGCCCCCGGGAGAUUUUUUCCUCGAGCAA
CUCUCGGUGGCCAAGUUGGUUUAAGGCGCAAGACUUUAAUUUAUCACUACGAAAUCUUGAGAUCGGGCGUUCGACUCCCACCCGGGAGAUUUUUUCCUCGAGCAA
CUCUCGGUGGCCAAGUUGGUUUAAGGCGCAAGACUUUAAUUUAUCACUACGAAAUCUUGAGAUAGGGCGUUCGACUCGCCCCCGGGAUAUUUUUUCCUCGAGCAA
CUCUCGGUGUCCAAGUUGGUUUAAGGCGCAAGACUUUAAUUUAUCACUACGAAAUCUUGAGAUCGGGCGUUCGACUCGCUCCCGGGCGAUUUUUUCCUCGAGCAA
CUCUCGGUGGCCAAGUUGGUUUAAGGCGGAAGACUUUAAUUUAUCACUACGAAAUCUUGAGAUCGGGCGUUCGUAUCGCCCCCGGGCGAUUUUUUCCUCGAGCAA
CUCUCGGUGGCCAAGUUCGUUUAAGGCGCAAGACUUUAAUUUAUCACUACGAAAUCUUGAGAUCGGGCGUUCGACUCGCCCCCGGGAGAUUUUUUCCUCGAGCAA
CUCUCGGUGGCCAAGUUGGUUUAAGGCGCAAGACUUUAAUUUAUCACUACGAAAUCUUGAAAUCGGGCGUUCGACUUGCCCCCGGGAGAUUUUUUCCUCGAGCAA
CUCUCGGUGGCCAAGUUGGUUUAAGGCGCAAGAAUUUAAUUUAUCACUACGAAAUCUUCAGAUCGGGCGUUCGACUCGCCCCCGGGAGAUUUUUUCCUCGAGCAA
CUCUCGGUGGCCAAGUUGGUUUAAGGCGCAAGACUUUAAUUUAUCACUACGAAAUCUUGAGAUCGGGCGUUCGACUGGCCCCCGGGAGAUUUUUUCCUCGAGCAA
CUCUCGGUGGCCAAGUUGGUUUAAGUCGCAAGACUUUAAUUUAUCACUACGAAAUCUUGAGAUCGGGGGUUCGCCUCGCCCCCGGGAGAUUUUUUCCUCGAGCAA
CUCUCGGUGGCCAAGUUGGUUUAAGGCGCAAGACUUUAAUUUAUCACUACGAAAUCUUGAGAUCGGGCGUUCGACUCGACCCCGGGCGAUUUUUUCCUCGAGCAA
CUCUCGGUGGCCAAGUUGGUUUAAGGCGCAAGACUUUAAUUUAUCACUACGAAAUCUUGAGAUCGGGCGUUCGACUCGCCCCCCGGAGAUUUUUUCCUCGAGCAA
CUCUCGGUGGCCAAGUUGGUUUAAGGCGCAAGACUUUAAUUUAUCACUACGAAAUAUUGAGAUCGGGCGUUCGACUCGCCCCAGGGAGAUUUUUUCCUCGAGCAA
CUCUCGGUGGCCAAGUUGGUUUAAGGCGCAAGACUUUAAUUUAUCACUACGAAAUCUUGAGAUCGUGCGUUCGACUCGCCCCCGGGAGAUUUUUUCCUCGAGCAA
CUCUCGGUGGCCAAGUUGGUUUAAGGCGCAAGACUUUAAUUUAUCACUACGAAAUCUUGAGAUCGAGCGUUCGACUCGCCCCCGGGAGAUUUUUUCCUCGAGCAA
CUCUCGGUGGCCAAGUUGGUUUAAGGCGCAAGACUUUAAUUUAUCACUACGAAAUCUUUAGAUCGGGCGUUCGACUCGCCCCCGGGAGAUUUUUUCCUCGAGCAA
CUCUCGGUGGCCAAGUUGGUUUAAGGCGCAAGACUUUAAUUUAUCACUACGAAAUCUUGAGAUCGGGCGUUCGACUCGCCCCCGGGACAUUUUUUCCUCGAGCAA
CUCUCGGUGGCCAAAUUGGUUUAAGGCGCAAGACUUUAAUUUAUCACUACGAAAUCUUGCGAUGGGGCGUUCGACUCGCCCCCGGGAGAUUUUUUCCUCGAGCAA
CUCUCGGUGGCCAAAAUGGUUUAAGGCGCAAGACUUUAAUUUAUCACUACGAAAUCUUGAGCUCGGGCGGUCGCCUCGCCCCCGUGAGAUUUUUUCCUCGAGCAA
CUCUCGGUGGCCAAGUUGCUUUAAGGCGCAAGGCUUUAAUUUAUCACUACGAAAUCUUGAGAUAGGCCGUUCGACUCGUCCCCGGGACAUUUUUUCCUCGAGCAA
CUCUCGGUGGCCAAGUUGGUUUAAGGCGGAAGACUUUAAUUUAUCACUACGAAAUCUUGAGAUCGGGCGUUCGUAUCGCCCCCGGGAGAUUUUUUCCUCGAGCAA
CUCUCGGUGGCCAAGUUGCUUUAAGGCGCAAGACUUUAAUUUAUCACUACGAAAUCUUGAGAUCGGCCGUUCGACUCGCCCCCGGGAGAUUUUUUCCUCGAGCAA
CUCUCGGUGGCCAAGUUGCUUUAAGGCGCAAGACUUUAAUUUAUCACUACGAAAUCUUGAGAUCGGGCGUUCGACUCGCCCCCGGGAGAUUUUUUCCUCGAGCAA
CUCUCGGUGGCCAAGUUGUUUUAAGGCGCAAGACUUUAAUUUAUCACUACGAAAUCUUGAGAUCGGGCGUUCGACUCGCCCCCGGGAGAUUUUUUCCUCGAGCAA
CUCUCGGUGGCCAAGUUGGUUUAACGCGCAAGACUUUAAUUUAUCACUACGAAAUCUUGACAUCGGGCGUUCGACUCGCCCCCGGGAAAUUUUUUCCUCGAGCAA
CUCUCGGUGGCCAAGUUGGUUUAAGGGGCAAGACUUUAAUUUAUCACUACGAAAUCUUGAGAUCGGGCGUUCGACUCGCCCCGGGGAGAUUUUUUCCUCGAGCAA
CUCUCGGUGGCCAAGUUGGUUUAAGGCGCAAGACUUUAAUUUAUCACUACGAAAUCUUGAGAUCGGACGUUCGACUCGCCCCCGGUAGAUUUUUUCCUCGAGCAA
CUCUCGGUGGCCAACUUGGUUUAAGGCGAAAUAGUUUAAUUUAUCACUACGAAAUCUUGAGAUCGGGCGUUCGACUCGCCCCCGGGAGAUUUUUUCCUCGAGCAA
CUCUCGGUGGCCAAGUUGUUUUAAGGCGCACGACUUUAAUUUAUCACUACGAAAUCUUGAGAUCGGGCGUUCGACUCUCCCCCGGGAGAUUUUUUCCUCGAGCAA
CUCUCGGUGGCCAAGUUGGUUUAAGGCGCAAGACUUUAAUUUAUCACUACGAAAUCUUGAGAUCGGGCGUUGGACGCGCCCCCGGGAUAUUUUUUCCUCGAGCAA
CUCUCGGUGGCCAAGUUGGUUUAAGGCGAAAUAUUUUAAUUUAUCACUACGAAAUCUUGAGAUCGGGCGUUCGACUCGCCCCCGGGAGAUUUUUUCCUCGAGCAA
CUCUCGGUGGCCAAGUUGGUUUAAGGUGCAAGACCUUAAUUUAUCACUACGAAAUCUUGAGAUCGGGCGUUCGACUCGCCCCCGGCAGAUUUUUUCCUCGAGCAA
CUCUCGGUGCCCAAGUUGGUUUAAGGCGCAAUACUUUAAUUUAUCACUACGAAAUCUAGAGAUCGGGCGUUCGACUCGCCCCCGGGAGAUUUUUUCCUCGAGCAA
CUCUCGGUGGCCAAUUUGGUUUGAUGCGCCAGACUUUAAUUUAUCACUACGAAAUCUUGAGAUCGGGCGUUCGACUCGCCCCCGGGAGAUUUUUUCCUCGAGCAA
CUCUCGGUGGCCAAGUUGCUUUAAGGCGCCAGACUUUAAUUUAUCACUACGAAAUCUUGAGAUCGGCCGUUCGACGCGCCCUCGGGAGAUUUUUUCCUCGAGCAA
CUCUCGGUGGCCAAGUUGGUUUAAGGCGUAAGACUUUAAUUUAUCACUACGAAGUCUUGAGAUCGGGCGUCCGACUCGCCCCCGGGAGAUUUUUUCCUCGAGCAA
CUCUCGGUGGCCAAGUUGGUUUAAGGCGCAAGACUUUAAUUUAUCACUACGAAAUCUUGAGAUCGCGCGUUCGACUCGCCGCCGGGAGAUUUUUUCCUCGAGCAA
CUCUCGGUGGCCAAGUUGGUUUAAGGCGCAAGACUUUAAUUUAUCACUACGAAAUCUUCAGAUCGGGCGUUCGAUUCGCCCCCGGGAGAUUUUUUCCUCGAGCAA
CUCUCGGUGGCCAAGUUUGUUUAAGGCGCAAGACUUUAAUUUAUCACUACGAAAUCUUGAGAUCGGGCGUUCGACUCGCCCCCGGGAAAUUUUUUCCUCGAGCAA
CUCUCGGUGGCCAAGUUGGUUUAAGGCGCAAGACUUUAAUUUAUCACUACGAAAUCUUGAGAUCGGGGGUGCGACUUGCCCCCGGGAGAUUUUUUCCUCGAGCAA

Nonsense suppression, 1.17:
CUCUCGGUGGCCAAGUUGGUUUAAGGCGCAAGACUUUAAUUUAUCACUACGAAAUCUUGAGAUCGGGCGUUCGAUUCGCCCCCGGGAGAUUUUUUCCUCGAGCAA
